In PMC5386588:
Read-outs that look alike come from different tables or passages of the source. These are yes or no findings as the source states them, for the method shown. For part of these data: In cells and extracts the contact can be indirect. Some results given as binding are weak or reduced against the parent protein; the word gives no strength. One block for each molecule: values may come before it.

Amino acid sequences for entries named in this document (tags omitted). A change or cut given only in a name is not applied to a line headed by its entry. Residues count along the entry.
UniProt Q9Y5X4: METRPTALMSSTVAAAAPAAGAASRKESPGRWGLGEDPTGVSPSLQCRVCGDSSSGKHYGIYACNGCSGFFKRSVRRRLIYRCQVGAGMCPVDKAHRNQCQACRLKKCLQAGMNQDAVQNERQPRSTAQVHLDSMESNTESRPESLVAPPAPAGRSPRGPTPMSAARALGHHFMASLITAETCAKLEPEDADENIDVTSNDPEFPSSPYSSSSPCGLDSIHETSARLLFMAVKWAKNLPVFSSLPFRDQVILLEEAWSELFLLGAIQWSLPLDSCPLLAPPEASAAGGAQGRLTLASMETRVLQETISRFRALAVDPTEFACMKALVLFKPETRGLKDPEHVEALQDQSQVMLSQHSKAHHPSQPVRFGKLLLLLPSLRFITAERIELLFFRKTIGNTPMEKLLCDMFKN
LexA-PNR LBD 192-399 mutant lacking the AF2 helix (ΔH12): residues 192-399 of Q9Y5X4
UniProt P37231: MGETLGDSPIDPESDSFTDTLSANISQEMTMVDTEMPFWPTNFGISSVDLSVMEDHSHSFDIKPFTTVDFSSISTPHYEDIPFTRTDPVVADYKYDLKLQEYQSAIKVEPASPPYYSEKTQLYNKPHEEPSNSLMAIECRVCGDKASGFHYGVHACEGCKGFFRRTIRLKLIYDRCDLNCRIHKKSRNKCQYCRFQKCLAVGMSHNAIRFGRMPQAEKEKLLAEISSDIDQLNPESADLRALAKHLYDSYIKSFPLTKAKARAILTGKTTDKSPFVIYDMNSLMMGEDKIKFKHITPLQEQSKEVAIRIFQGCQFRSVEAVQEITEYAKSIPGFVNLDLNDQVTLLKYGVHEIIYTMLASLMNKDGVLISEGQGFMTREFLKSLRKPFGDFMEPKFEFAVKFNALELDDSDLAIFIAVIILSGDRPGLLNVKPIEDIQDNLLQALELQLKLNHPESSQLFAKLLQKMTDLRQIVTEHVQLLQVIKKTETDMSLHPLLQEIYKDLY
UniProt Q9Y466: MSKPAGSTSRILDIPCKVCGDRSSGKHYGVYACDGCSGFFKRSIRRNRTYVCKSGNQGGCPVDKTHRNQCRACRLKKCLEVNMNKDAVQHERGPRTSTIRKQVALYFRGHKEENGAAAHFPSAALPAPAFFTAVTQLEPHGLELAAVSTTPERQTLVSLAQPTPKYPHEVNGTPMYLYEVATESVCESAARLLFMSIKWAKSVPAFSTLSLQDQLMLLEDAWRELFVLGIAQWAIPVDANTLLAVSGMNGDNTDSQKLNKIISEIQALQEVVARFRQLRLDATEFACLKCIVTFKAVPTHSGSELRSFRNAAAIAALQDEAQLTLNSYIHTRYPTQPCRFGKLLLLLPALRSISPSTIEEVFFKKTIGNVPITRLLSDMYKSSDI

What was measured:
[1] = target: PNR hinge-LBD (131–410) (human) (UniProt Q9Y5X4); assay: two-hybrid; S. cerevisiae L40 co-expressing a LexA-DBD fusion and a VP16 AAD fusion; β-galactosidase activity of cell-free extracts, three clones; result told without exogenous ligand or alike with and without it (rosiglitazone)
[2] = target: endogenous PNR (human (endogenous in adult human retinal tissue and MDA-MB-468)) (UniProt Q9Y5X4); assay: co-IP; endogenous proteins of the breast cancer cell line MDA-MB-468 (Supplementary Figure S4)
[3] = target: endogenous PNR (human (endogenous in adult human retinal tissue and MDA-MB-468)) (UniProt Q9Y5X4); assay: co-IP; cell-free extract of adult human retinal tissue; PNR immunoprecipitated, western blots for PPARγ and TLX
[4] = target: PNR hinge-LBD (131–410) (human) (UniProt Q9Y5X4); assay: two-hybrid; S. cerevisiae L40 co-expressing a LexA-DBD fusion and a VP16 AAD fusion; β-galactosidase activity of cell-free extracts, three clones; result told without exogenous ligand or alike with and without it (rosiglitazone); remark: listed apart in the source
[5] = target: LexA-PNR LBD 192-399 mutant lacking the AF2 helix (ΔH12) (human) (UniProt Q9Y5X4); assay: as above

Molecule: endogenous PPARγ (from UniProt P37231 1-505)
- binding [2]: binds
- binding [3]: binds

Molecule: endogenous TLX (from UniProt Q9Y466 1-385)
- binding [3]: no binding

The remaining lines, values ahead:

- binding [1]: binds
Molecule: PNR hinge-LBD (131–410) (from UniProt Q9Y5X4 131-410) (domain or fragment)

- binding [4]: binds
- binding [5]: no binding
B1: AAD-BCL11A 1-376 containing the RID motif (domain or fragment, UniProt Q9H165 1-376)
chain: MSRRKQGKPQHLSKREFSPEPLEAILTDDEPDHGPLGAPEGDHDLLTCGQCQMNFPLGDILIFIEHKRKQCNGSLCLEKAVDKPPSPSPIEMKKASNPVEVGIQVTPEDDDCLSTSSRGICPKQEHIADKLLHWRGLSSPRSAHGALIPTPGMSAEYAPQGICKDEPSSYTCTTCKQPFTSAWFLLQHAQNTHGLRIYLESEHGSPLTPRVGIPSGLGAECPSQPPLHGIHIADNNPFNLLRIPGSVSREASGLAEGRFPPTPPLFSPPPRHHLDPHRIERLGAEEMALATHHPSAFDRVLRLNPMAMEPPAMDFSRRLRELAGNTSSPPLSPGRPSPMQRLLQPFQPGSKPPFLATPPLPPLQSAPPPSQPPVKS
